Experimental data from PMC6270209, “Synthesis, Antimycobacterial Activity and In Vitro Cytotoxicity of 5-Chloro-N-phenylpyrazine-2-carboxamides” (Molecules, 2013).

Source text: Lipophilicity is one of the most important physico-chemical properties determining the biological activity of small molecules, affecting the non-specific diffusion through biological membranes. It is well known that antimycobacterial activity is often enhanced by increased lipophilicity, which facilitates the penetration through highly lipophilic mycobacterial outer envelope and cell wall. The lipophilicity of the prepared compounds was predicted as logP using commercially available software CS ChemDraw Ultra ver. 12.0 (CambridgeSoft, Cambridge, MA, USA). Additionally, the lipophilicity was measured experimentally by RP-HPLC and expressed as logk derived from retention times of individual compounds (see Table 1). […] Chem3D Pro’s (CambridgeSoft) built-in MM2 energy minimization function with default parameters was used to study the possibility of intramolecular H-bond formation. Indeed, all of these compounds were capable of forming the H-bond between the ortho substituent on the phenyl ring (lone electron pair as acceptor) and the hydrogen of the amide function (donor). The amide bond was in the trans configuration. See the model of compound 5 in Figure 1B for a representative example. As found in literature, the existence of this H-bond was confirmed experimentally for some similar anilides of POA (e.g., with ortho-NO2 substituent).
Instrumentation: Agilent Technologies 1200 SL liquid chromatograph with Diode-array Detector SL G1315C (Agilent Technologies Inc., Colorado Springs, CO, USA); pre-column ZORBAX XDB-C18 5 µm, 4 × 4 mm, Part No. 7995118-504 (Agilent Technologies Inc.) and column ZORBAX Eclipse XDB-C18 5 µm, 4.6 × 250 mm, Part No. 7995118-585 (Agilent Technologies Inc.). The separation process was controlled by Agilent ChemStation, version B.04.02 extended by spectral module (Agilent Technologies Inc.). Mobile phase consisted of MeOH (HPLC grade, 70%) and H2O (HPLC-Milli-Q Grade, 30%).
Conditions: Flow rate 1.0 mL/min, sample injection volume 20 µL, column temperature 30 °C, detection wavelength 210 nm, monitor wavelength 270 nm. Retention times (tR) were measured in minutes. The dead time of the system (tD) was determined as the retention time of KI methanol solution. Capacity factors k for individual compounds were calculated according to the formula k = (tR − tD)/tD. Logk, calculated from the capacity factor k, is used as the lipophilicity index converted to log scale.

Row | Structure (SMILES) | Lipophilicity logk
1 | O=C(Nc1ccccc1)c1cnc(Cl)cn1 [Compound 1, 5-Chloro-N-phenylpyrazine-2-carboxamide] | 0.286
2 | O=C(Nc1ccccc1O)c1cnc(Cl)cn1 [Compound 2, 5-Chloro-N-(2-hydroxyphenyl)pyrazine-2-carboxamide] | 0.248
3 | O=C(Nc1cccc(O)c1)c1cnc(Cl)cn1 [Compound 3, 5-Chloro-N-(3-hydroxyphenyl)pyrazine-2-carboxamide] | −0.053
4 | O=C(Nc1ccc(O)cc1)c1cnc(Cl)cn1 [Compound 4, 5-Chloro-N-(4-hydroxyphenyl)pyrazine-2-carboxamide] | −0.138
5 | COc1ccc(NC(=O)c2cnc(Cl)cn2)c(OC)c1 [Compound 5] | 0.579
6 | Cc1ccc(C)c(NC(=O)c2cnc(Cl)cn2)c1 [Compound 6, 5-Chloro-N-(2,5-dimethylphenyl)pyrazine-2-carboxamide] | 0.618
7 | CCc1ccc(NC(=O)c2cnc(Cl)cn2)cc1 [Compound 7, 5-Chloro-N-(4-ethylphenyl)pyrazine-2-carboxamide] | 0.685
8 | CC(C)c1ccc(NC(=O)c2cnc(Cl)cn2)cc1 [Compound 8, 5-Chloro-N-(4-isopropylphenyl)pyrazine-2-carboxamide] | 0.859
9 | O=C(Nc1cccc(F)c1)c1cnc(Cl)cn1 [Compound 10, 5-Chloro-N-(3-fluorophenyl)pyrazine-2-carboxamide] | 0.389
10 | O=C(Nc1ccc(F)cc1F)c1cnc(Cl)cn1 [Compound 11, 5-Chloro-N-(2,4-difluorophenyl)pyrazine-2-carboxamide] | 0.477
11 | O=C(Nc1ccc(Cl)c(Cl)c1)c1cnc(Cl)cn1 [Compound 14, 5-Chloro-N-(3,4-dichlorophenyl)pyrazine-2-carboxamide] | 0.881
12 | O=C(Nc1cccc(Br)c1)c1cnc(Cl)cn1 [Compound 16, 5-Chloro-N-(3-bromophenyl)pyrazine-2-carboxamide] | 0.646
13 | Cc1ccc(F)cc1NC(=O)c1cnc(Cl)cn1 [Compound 19, 5-Chloro-N-(5-fluoro-2-methylphenyl)pyrazine-2-carboxamide] | 0.525
14 | Cc1ccc(Cl)c(NC(=O)c2cnc(Cl)cn2)c1 [Compound 20, 5-Chloro-N-(2-chloro-5-methylphenyl)pyrazine-2-carboxamide] | 1.061
15 | O=C(Nc1cc(Cl)ccc1O)c1cnc(Cl)cn1 [Compound 21, 5-Chloro-N-(5-chloro-2-hydroxyphenyl)pyrazine-2-carboxamide] | 0.602
16 | O=C(Nc1ccc(O)c(Cl)c1)c1cnc(Cl)cn1 [Compound 22, 5-Chloro-N-(3-chloro-4-hydroxyphenyl)pyrazine-2-carboxamide] | 0.070
17 | O=C(Nc1cc([N+](=O)[O-])ccc1O)c1cnc(Cl)cn1 [Compound 23, 5-Chloro-N-(2-hydroxy-5-nitrophenyl)pyrazine-2-carboxamide] | 0.230
18 | O=C(Nc1ccccc1[N+](=O)[O-])c1cnc(Cl)cn1 [Compound 24, 5-Chloro-N-(2-nitrophenyl)pyrazine-2-carboxamide] | 0.674
19 | N#Cc1cccc(NC(=O)c2cnc(Cl)cn2)c1 [Compound 26, 5-Chloro-N-(3-cyanophenyl)pyrazine-2-carboxamide] | 0.192
20 | N#Cc1ccc(NC(=O)c2cnc(Cl)cn2)cc1 [Compound 27, 5-Chloro-N-(4-cyanophenyl)pyrazine-2-carboxamide] | 0.201
21 | O=C(Nc1cccc(C(F)(F)F)c1)c1cnc(Cl)cn1 [Compound 28, 5-Chloro-N-(3-(trifluoromethyl)phenyl)pyrazine-2-carboxamide] | 0.643
22 | O=C(Nc1ccc(C(F)(F)F)cc1)c1cnc(Cl)cn1 [Compound 29, 5-Chloro-N-(4-(trifluoromethyl)phenyl)pyrazine-2-carboxamide] | 0.704
